Data: article PMC10629813
No constants are given. Whether binding was seen depends on the method and setting. In cells and extracts the contact can be indirect. Some results given as binding are weak or reduced against the parent protein; the word gives no strength. For part of these data: Tags and fused reporters may be left off the sequences shown.

Amino acid sequences for entries named in this document (tags omitted).
UniProt Q13263: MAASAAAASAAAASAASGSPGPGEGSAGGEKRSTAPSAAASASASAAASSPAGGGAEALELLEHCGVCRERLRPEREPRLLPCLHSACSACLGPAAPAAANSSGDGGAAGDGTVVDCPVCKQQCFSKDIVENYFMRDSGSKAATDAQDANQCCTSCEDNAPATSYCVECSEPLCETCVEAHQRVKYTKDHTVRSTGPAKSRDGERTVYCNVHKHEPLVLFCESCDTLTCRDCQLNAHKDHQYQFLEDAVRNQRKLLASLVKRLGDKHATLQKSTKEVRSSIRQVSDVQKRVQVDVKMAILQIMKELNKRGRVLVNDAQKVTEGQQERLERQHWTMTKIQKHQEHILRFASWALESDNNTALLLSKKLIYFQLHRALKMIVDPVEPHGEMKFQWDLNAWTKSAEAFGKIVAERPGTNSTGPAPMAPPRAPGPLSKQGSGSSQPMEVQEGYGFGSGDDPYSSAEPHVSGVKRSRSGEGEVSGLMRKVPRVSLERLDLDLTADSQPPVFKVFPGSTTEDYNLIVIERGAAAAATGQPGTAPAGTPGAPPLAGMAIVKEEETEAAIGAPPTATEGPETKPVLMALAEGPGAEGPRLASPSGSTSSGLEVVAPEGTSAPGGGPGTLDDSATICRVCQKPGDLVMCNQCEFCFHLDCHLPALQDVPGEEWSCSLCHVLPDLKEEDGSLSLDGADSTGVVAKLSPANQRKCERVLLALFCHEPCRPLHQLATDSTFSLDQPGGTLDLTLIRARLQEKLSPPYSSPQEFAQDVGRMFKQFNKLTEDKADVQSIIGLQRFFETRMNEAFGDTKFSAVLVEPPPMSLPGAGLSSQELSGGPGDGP

T1: ZMYM2 (endogenous, U2OS cells) (human (endogenous in U2OS)) (UniProt Q9UBW7)
T1 sequence: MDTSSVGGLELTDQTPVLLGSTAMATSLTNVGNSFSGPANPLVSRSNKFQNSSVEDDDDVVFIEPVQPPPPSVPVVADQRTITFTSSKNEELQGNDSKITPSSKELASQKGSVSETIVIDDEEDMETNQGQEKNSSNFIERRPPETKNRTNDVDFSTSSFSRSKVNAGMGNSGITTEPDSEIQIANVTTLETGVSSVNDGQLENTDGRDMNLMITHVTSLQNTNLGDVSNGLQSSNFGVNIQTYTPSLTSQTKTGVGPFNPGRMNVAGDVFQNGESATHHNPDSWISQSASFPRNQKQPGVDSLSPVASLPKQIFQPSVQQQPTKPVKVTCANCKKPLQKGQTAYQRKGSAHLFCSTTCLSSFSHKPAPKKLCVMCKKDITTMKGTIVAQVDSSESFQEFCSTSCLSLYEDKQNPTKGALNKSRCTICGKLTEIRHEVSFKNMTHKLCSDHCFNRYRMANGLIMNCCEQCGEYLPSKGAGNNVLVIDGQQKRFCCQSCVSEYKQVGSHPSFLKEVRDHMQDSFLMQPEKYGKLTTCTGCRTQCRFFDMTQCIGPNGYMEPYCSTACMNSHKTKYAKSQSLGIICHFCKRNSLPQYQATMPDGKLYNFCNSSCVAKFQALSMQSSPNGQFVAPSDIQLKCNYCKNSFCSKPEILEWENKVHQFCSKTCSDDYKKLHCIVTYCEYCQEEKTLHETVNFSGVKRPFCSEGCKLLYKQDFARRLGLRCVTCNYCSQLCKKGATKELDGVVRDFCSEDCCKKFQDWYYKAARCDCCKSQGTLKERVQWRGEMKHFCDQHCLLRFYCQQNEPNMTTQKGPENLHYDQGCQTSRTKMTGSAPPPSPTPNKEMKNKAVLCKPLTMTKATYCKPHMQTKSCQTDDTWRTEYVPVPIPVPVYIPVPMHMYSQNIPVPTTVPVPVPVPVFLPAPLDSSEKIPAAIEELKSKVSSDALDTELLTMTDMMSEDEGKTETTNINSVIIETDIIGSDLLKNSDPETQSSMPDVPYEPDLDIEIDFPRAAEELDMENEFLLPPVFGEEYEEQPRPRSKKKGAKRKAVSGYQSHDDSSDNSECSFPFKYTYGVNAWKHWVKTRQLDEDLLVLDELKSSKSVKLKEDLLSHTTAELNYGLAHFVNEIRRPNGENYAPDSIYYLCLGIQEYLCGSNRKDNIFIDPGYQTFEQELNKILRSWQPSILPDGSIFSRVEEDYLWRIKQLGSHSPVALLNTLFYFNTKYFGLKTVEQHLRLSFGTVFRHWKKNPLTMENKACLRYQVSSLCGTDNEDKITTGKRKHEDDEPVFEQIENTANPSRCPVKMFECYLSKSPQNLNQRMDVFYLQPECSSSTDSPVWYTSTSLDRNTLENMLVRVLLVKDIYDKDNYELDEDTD

T2: ZMYM3 (endogenous, U2OS cells) (human (endogenous in U2OS)) (UniProt Q14202)
T2 sequence: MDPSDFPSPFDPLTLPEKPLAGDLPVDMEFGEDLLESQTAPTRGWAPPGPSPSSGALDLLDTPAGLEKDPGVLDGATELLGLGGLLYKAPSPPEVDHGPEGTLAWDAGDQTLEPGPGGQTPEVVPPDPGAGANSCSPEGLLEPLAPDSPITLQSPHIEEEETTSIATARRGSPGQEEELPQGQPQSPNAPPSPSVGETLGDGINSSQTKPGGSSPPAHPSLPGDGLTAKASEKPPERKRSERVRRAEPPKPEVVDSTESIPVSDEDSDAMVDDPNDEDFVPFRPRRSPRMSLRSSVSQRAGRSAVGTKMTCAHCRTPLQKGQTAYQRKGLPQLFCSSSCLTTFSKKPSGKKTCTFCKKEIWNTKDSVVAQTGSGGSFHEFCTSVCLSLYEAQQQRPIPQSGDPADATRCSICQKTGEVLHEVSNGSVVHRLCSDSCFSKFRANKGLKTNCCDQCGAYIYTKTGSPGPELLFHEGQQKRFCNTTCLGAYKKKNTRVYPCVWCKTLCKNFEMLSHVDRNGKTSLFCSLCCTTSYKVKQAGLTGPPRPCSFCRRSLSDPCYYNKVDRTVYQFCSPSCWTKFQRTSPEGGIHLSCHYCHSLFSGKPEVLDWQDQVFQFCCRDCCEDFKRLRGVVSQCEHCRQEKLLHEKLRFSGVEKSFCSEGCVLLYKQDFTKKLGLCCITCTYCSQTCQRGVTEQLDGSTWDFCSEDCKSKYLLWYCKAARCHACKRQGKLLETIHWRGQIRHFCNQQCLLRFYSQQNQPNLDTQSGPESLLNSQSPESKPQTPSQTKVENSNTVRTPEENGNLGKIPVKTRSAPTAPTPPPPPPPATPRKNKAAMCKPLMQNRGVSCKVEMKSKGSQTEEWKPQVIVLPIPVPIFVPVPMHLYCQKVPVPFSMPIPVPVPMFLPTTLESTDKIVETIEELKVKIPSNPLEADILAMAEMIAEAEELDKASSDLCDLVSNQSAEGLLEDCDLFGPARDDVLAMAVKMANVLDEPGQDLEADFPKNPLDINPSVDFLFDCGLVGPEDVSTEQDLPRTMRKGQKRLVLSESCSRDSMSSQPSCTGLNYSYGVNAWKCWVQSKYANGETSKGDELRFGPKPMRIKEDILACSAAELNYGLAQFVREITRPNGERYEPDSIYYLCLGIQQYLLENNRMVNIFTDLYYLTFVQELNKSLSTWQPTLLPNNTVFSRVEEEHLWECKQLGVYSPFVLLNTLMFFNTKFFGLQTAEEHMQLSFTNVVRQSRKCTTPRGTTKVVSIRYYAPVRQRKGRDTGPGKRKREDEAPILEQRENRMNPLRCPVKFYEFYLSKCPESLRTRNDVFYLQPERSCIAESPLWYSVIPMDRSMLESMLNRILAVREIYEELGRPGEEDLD


What was measured:
[1] = target: T1, ZMYM2 (endogenous, U2OS cells) (human (endogenous in U2OS)); assay: co-IP; IP with ZMYM2 or ZMYM3 antibody or control IgG from U2OS cells, immunoblot; NEM not mentioned
[2] = target: T2, ZMYM3 (endogenous, U2OS cells) (human (endogenous in U2OS)); assay: as above
[3] = target: TRIM28 (endogenous, HEK293T cells) (human (endogenous in HEK293T)) (UniProt Q13263); assay: co-IP; HEK293T cells transfected 24 hr with EGFP-tagged ZMYM2 plasmids; lysates with protease inhibitors and 20 mM NEM; IP with TRIM28 antibody, immunoblot with GFP and TRIM28 antibodies

| binding [1] | binding [2] | binding [3] | Binder |
| --- | --- | --- | --- |
| binds | binds |  | ADNP (endogenous, U2OS cells) (protein, UniProt Q9H2P0 1-1102) MFQLPVNNLGSLRKARKTVKKILSDIGLEYCKEHIEDFKQFEPNDFYLKNTTWEDVGLWDPSLTKNQDYRTKPFCCSACPFSSKFFSAYKSHFRNVHSEDFENRILLNCPYCTFNADKKTLETHIKIFHAPNASAPSSSLSTFKDKNKNDGLKPKQADSVEQAVYYCKKCTYRDPLYEIVRKHIYREHFQHVAAPYIAKAGEKSLNGAVPLGSNAREESSIHCKRCLFMPKSYEALVQHVIEDHERIGYQVTAMIGHTNVVVPRSKPLMLIAPKPQDKKSMGLPPRIGSLASGNVRSLPSQQMVNRLSIPKPNLNSTGVNMMSSVHLQQNNYGVKSVGQGYSVGQSMRLGLGGNAPVSIPQQSQSVKQLLPSGNGRSYGLGSEQRSQAPARYSLQSANASSLSSGQLKSPSLSQSQASRVLGQSSSKPAAAATGPPPGNTSSTQKWKICTICNELFPENVYSVHFEKEHKAEKVPAVANYIMKIHNFTSKCLYCNRYLPTDTLLNHMLIHGLSCPYCRSTFNDVEKMAAHMRMVHIDEEMGPKTDSTLSFDLTLQQGSHTNIHLLVTTYNLRDAPAESVAYHAQNNPPVPPKPQPKVQEKADIPVKSSPQAAVPYKKDVGKTLCPLCFSILKGPISDALAHHLRERHQVIQTVHPVEKKLTYKCIHCLGVYTSNMTASTITLHLVHCRGVGKTQNGQDKTNAPSRLNQSPSLAPVKRTYEQMEFPLLKKRKLDDDSDSPSFFEEKPEEPVVLALDPKGHEDDSYEARKSFLTKYFNKQPYPTRREIEKLAASLWLWKSDIASHFSNKRKKCVRDCEKYKPGVLLGFNMKELNKVKHEMDFDAEWLFENHDEKDSRVNASKTADKKLNLGKEDDSSSDSFENLEEESNESGSPFDPVFEVEPKISNDNPEEHVLKVIPEDASESEEKLDQKEDGSKYETIHLTEEPTKLMHNASDSEVDQDDVVEWKDGASPSESGPGSQQVSDFEDNTCEMKPGTWSDESSQSEDARSSKPAAKKKATMQGDREQLKWKNSSYGKVEGFWSKDQSQWKNASENDERLSNPQIEWQNSTIDSEDGEQFDNMTDGVAEPMHGSLAGVKLSSQQA |
|  |  | binds | EGFP-ZMYM2(WT) (protein, UniProt Q9UBW7 1-1377) MDTSSVGGLELTDQTPVLLGSTAMATSLTNVGNSFSGPANPLVSRSNKFQNSSVEDDDDVVFIEPVQPPPPSVPVVADQRTITFTSSKNEELQGNDSKITPSSKELASQKGSVSETIVIDDEEDMETNQGQEKNSSNFIERRPPETKNRTNDVDFSTSSFSRSKVNAGMGNSGITTEPDSEIQIANVTTLETGVSSVNDGQLENTDGRDMNLMITHVTSLQNTNLGDVSNGLQSSNFGVNIQTYTPSLTSQTKTGVGPFNPGRMNVAGDVFQNGESATHHNPDSWISQSASFPRNQKQPGVDSLSPVASLPKQIFQPSVQQQPTKPVKVTCANCKKPLQKGQTAYQRKGSAHLFCSTTCLSSFSHKPAPKKLCVMCKKDITTMKGTIVAQVDSSESFQEFCSTSCLSLYEDKQNPTKGALNKSRCTICGKLTEIRHEVSFKNMTHKLCSDHCFNRYRMANGLIMNCCEQCGEYLPSKGAGNNVLVIDGQQKRFCCQSCVSEYKQVGSHPSFLKEVRDHMQDSFLMQPEKYGKLTTCTGCRTQCRFFDMTQCIGPNGYMEPYCSTACMNSHKTKYAKSQSLGIICHFCKRNSLPQYQATMPDGKLYNFCNSSCVAKFQALSMQSSPNGQFVAPSDIQLKCNYCKNSFCSKPEILEWENKVHQFCSKTCSDDYKKLHCIVTYCEYCQEEKTLHETVNFSGVKRPFCSEGCKLLYKQDFARRLGLRCVTCNYCSQLCKKGATKELDGVVRDFCSEDCCKKFQDWYYKAARCDCCKSQGTLKERVQWRGEMKHFCDQHCLLRFYCQQNEPNMTTQKGPENLHYDQGCQTSRTKMTGSAPPPSPTPNKEMKNKAVLCKPLTMTKATYCKPHMQTKSCQTDDTWRTEYVPVPIPVPVYIPVPMHMYSQNIPVPTTVPVPVPVPVFLPAPLDSSEKIPAAIEELKSKVSSDALDTELLTMTDMMSEDEGKTETTNINSVIIETDIIGSDLLKNSDPETQSSMPDVPYEPDLDIEIDFPRAAEELDMENEFLLPPVFGEEYEEQPRPRSKKKGAKRKAVSGYQSHDDSSDNSECSFPFKYTYGVNAWKHWVKTRQLDEDLLVLDELKSSKSVKLKEDLLSHTTAELNYGLAHFVNEIRRPNGENYAPDSIYYLCLGIQEYLCGSNRKDNIFIDPGYQTFEQELNKILRSWQPSILPDGSIFSRVEEDYLWRIKQLGSHSPVALLNTLFYFNTKYFGLKTVEQHLRLSFGTVFRHWKKNPLTMENKACLRYQVSSLCGTDNEDKITTGKRKHEDDEPVFEQIENTANPSRCPVKMFECYLSKSPQNLNQRMDVFYLQPECSSSTDSPVWYTSTSLDRNTLENMLVRVLLVKDIYDKDNYELDEDTD |
